Experimental findings from paper PMC4336329 (PLoS ONE, 2015) are described below.

The campaign covered roughly 310,000 compounds. About 2,200 (0.71%) showed an effect of 50% or more. The effect is printed as a negative number. This is one part of the list.

The target of this assay is human ether-à-go-go-related gene (hERG) potassium channel (human, UniProt Q12809). The assay can be described thus: primary screen, population patch clamp on CHO cells stably expressing hERG.
Chain of human ether-à-go-go-related gene (hERG) potassium channel (Q12809 whole entry, looked up): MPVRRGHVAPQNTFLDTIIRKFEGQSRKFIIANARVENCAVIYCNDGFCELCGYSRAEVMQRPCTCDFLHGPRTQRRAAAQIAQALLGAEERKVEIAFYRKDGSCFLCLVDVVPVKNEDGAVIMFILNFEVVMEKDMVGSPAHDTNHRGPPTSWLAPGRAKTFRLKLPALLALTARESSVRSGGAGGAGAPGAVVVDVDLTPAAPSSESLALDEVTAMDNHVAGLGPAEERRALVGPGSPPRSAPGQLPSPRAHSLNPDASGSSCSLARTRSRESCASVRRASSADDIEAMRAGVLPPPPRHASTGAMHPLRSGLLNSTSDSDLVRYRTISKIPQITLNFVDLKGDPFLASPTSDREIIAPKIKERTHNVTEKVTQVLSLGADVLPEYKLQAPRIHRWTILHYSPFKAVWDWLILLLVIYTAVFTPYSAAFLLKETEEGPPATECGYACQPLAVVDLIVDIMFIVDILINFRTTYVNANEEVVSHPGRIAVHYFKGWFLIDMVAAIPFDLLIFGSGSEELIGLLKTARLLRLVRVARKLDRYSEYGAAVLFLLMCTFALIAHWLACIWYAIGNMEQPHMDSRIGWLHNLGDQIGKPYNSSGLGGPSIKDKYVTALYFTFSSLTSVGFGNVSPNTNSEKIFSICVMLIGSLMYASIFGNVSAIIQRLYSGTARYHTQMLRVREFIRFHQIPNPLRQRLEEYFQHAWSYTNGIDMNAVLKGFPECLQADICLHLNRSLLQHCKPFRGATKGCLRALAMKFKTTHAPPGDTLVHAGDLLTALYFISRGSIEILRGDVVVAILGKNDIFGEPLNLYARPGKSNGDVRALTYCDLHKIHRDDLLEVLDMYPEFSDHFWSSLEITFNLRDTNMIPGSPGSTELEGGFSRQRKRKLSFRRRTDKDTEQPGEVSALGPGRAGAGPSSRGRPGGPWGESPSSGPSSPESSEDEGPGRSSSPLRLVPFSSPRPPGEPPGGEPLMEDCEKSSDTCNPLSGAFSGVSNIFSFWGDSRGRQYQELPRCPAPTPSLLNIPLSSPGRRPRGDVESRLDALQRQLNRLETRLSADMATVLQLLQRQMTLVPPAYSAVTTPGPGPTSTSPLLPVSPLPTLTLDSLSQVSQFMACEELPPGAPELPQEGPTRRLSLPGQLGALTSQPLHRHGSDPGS
For the compound `Cc1cc2c(cc1S(=O)(=O)CCC(=O)NC1CCC(C)CC1)OCC(=O)N2` (stereo not shown), the “hERG current change (%, negative = inhibition) at 1uM” value is on record as -6.33%.

Take `CCCCCn1c(=O)[nH]c2cc(C(=O)NCCN3CCCCC3C)ccc2c1=O` (stereo not shown): the “hERG current change (%, negative = inhibition) at 1uM” value came out at 8.52%.

With `CCCCn1c(N)c(N(CCOC)C(=O)c2ccc(Cl)c(S(=O)(=O)N3CCCCC3)c2)c(=O)[nH]c1=O`, the “hERG current change (%, negative = inhibition) at 1uM” value is recorded as 15.5%.

As for `O=C(COC(=O)Cc1ccc(Br)cc1)NC1CC1`, the “hERG current change (%, negative = inhibition) at 1uM” value was -5.85%.

In the case of `CCCOc1ccc(-c2nc(C#N)c(NCC3CCCO3)o2)cc1` (stereo not shown), the “hERG current change (%, negative = inhibition) at 1uM” value is reported as -7.89%.

In the case of `O=C(N/C(=C/C=C/c1ccccc1)C(=O)N1CCOCC1)c1ccccc1Cl`, the “hERG current change (%, negative = inhibition) at 1uM” value turned out to be 0.947%.

For the compound `COc1cc(C(=O)N/N=C(\C)c2ccccn2)cc(OC)c1OC`, the “hERG current change (%, negative = inhibition) at 1uM” value is 12%.

Regarding `CCOC(=O)c1c(NC(=O)CNC2CCCc3ccccc32)sc(C(N)=O)c1C` (stereo not shown), the “hERG current change (%, negative = inhibition) at 1uM” value is given as 14.1%.

Regarding `O=C(O)Cc1ccc(Oc2ncc(C(F)(F)F)cc2Cl)cc1`, the “hERG current change (%, negative = inhibition) at 1uM” value is recorded as 11.5%.

With `COC(=O)c1ccc(C)c(NC(=O)CCNC(=O)c2ccc([N+](=O)[O-])cc2)c1`, the “hERG current change (%, negative = inhibition) at 1uM” value is -1.25%.

Consider `CCOC(=O)N1CCN(C(=O)COc2ccc([N+](=O)[O-])cc2)CC1`, for which the “hERG current change (%, negative = inhibition) at 1uM” value is reported as -7.49%.

On to `Cc1sccc1/C=N/NC(=O)c1ccco1`, for which the “hERG current change (%, negative = inhibition) at 1uM” value is given as 10.4%.

`CN(Cc1ccc(F)cc1)C(=O)COc1ccc2ccccc2c1`: the “hERG current change (%, negative = inhibition) at 1uM” value came to 8.89%.

For `COc1cc(CNCCO)ccc1OC1CCCC1.Cl`, the “hERG current change (%, negative = inhibition) at 1uM” value is on record as 1.21%.

Regarding `COC(=O)C(Cc1ccc(O)cc1)NC(=O)C1CCN(S(=O)(=O)c2ccc(C)cc2)CC1` (stereo not shown), the “hERG current change (%, negative = inhibition) at 1uM” value was 11.4%.

For `Cc1ccc(N)cc1N`, the “hERG current change (%, negative = inhibition) at 1uM” value came to 11.8%.

For `COc1cc(/C=N\NC(=O)c2ccc(=O)[nH]n2)cc(OC)c1OC`, the “hERG current change (%, negative = inhibition) at 1uM” value was 13.7%.

For the compound `O=C(N/N=C/c1ccnc2ccccc12)c1ccccc1O`, the “hERG current change (%, negative = inhibition) at 1uM” value is listed as 0.864%.

As for `CCCCNS(=O)(=O)c1ccc(NS(=O)(=O)c2c(C)cc(C)cc2C)cc1`, the “hERG current change (%, negative = inhibition) at 1uM” value is 1.22%.

As to `FC(F)Oc1ccc(N=C2SCC3CCCCN23)cc1` (stereo not shown), the “hERG current change (%, negative = inhibition) at 1uM” value was 6.94%.

For the compound `Cn1c2ccccc2c(=O)c2c(O)cccc21`, the “hERG current change (%, negative = inhibition) at 1uM” value was determined as 11.5%.

For the compound `NC(=NCCc1c[nH]c2ccccc12)NS(=O)(=O)c1cc(F)ccc1F`, the “hERG current change (%, negative = inhibition) at 1uM” value is reported as 11.3%.

Regarding `COc1ccc(Br)cc1/C=C\C(=O)NCc1cccnc1`, the “hERG current change (%, negative = inhibition) at 1uM” value is given as -0.0518%.

Consider `CC(C)c1cc(C(=O)Nc2cc(Br)ccc2O)no1`, for which the “hERG current change (%, negative = inhibition) at 1uM” value turned out to be 18.5%.

As to `COc1ccccc1NC(=O)N1c2ccc(F)cc2CCC1C` (stereo not shown), the “hERG current change (%, negative = inhibition) at 1uM” value is on record as -11.5%.

Regarding `CCOc1ccc(S(=O)(=O)/N=C(/Nc2ccc(OC)cc2)c2ccccc2)cc1`, the “hERG current change (%, negative = inhibition) at 1uM” value amounted to 15.1%.

Consider `O=C(NCc1ccncc1)C(=O)N/N=C/c1ccc(OCc2ccccc2)cc1`, for which the “hERG current change (%, negative = inhibition) at 1uM” value came to 11.6%.

For the compound `CN(C)S(=O)(=O)c1cccc(NC(=O)COC(=O)CCC(=O)c2ccc(F)cc2)c1`, the “hERG current change (%, negative = inhibition) at 1uM” value came to 1.8%.

As to `CC(C)CCC(O)(c1ccccc1)C(CN1CCOCC1)c1ccccc1.Cl` (stereo not shown), the “hERG current change (%, negative = inhibition) at 1uM” value came to 11.7%.

`COc1ccc(NC(=O)CCNC(=O)c2ccco2)c(OC)c1`: the “hERG current change (%, negative = inhibition) at 1uM” value stood at 12.3%.

For the compound `CC(=O)N1Cc2ccccc2CC1C(=O)N1CCN(c2ccccc2)CC1` (stereo not shown), the “hERG current change (%, negative = inhibition) at 1uM” value is listed as 10.1%.

For the compound `Cc1cc(C(=O)N/N=C/c2cccc(OC(=O)c3ccco3)c2)n[nH]1`, the “hERG current change (%, negative = inhibition) at 1uM” value came to 15.4%.

Turning to `CC(=O)N1CCN(CCN=CC2=C(O)CC(c3cccs3)CC2=O)CC1` (stereo not shown), the “hERG current change (%, negative = inhibition) at 1uM” value is reported as 10.4%.

`Cc1oc(-c2ccc(Cl)cc2)nc1CN1CCC(C(=O)NCCCN2CCOCC2)CC1`: the “hERG current change (%, negative = inhibition) at 1uM” value is reported as -6.29%.

Take `CSC(SC)=C(C(C)=O)C(=O)c1ccc(C)cc1`: the “hERG current change (%, negative = inhibition) at 1uM” value stood at 1.48%.

Take `CC(C)c1ccc(C(O)c2nc3ccccc3n2C)cc1` (stereo not shown): the “hERG current change (%, negative = inhibition) at 1uM” value is listed as 6.52%.

Turning to `COc1ccccc1NC(=O)C[n+]1ccccc1C.[Cl-]`, the “hERG current change (%, negative = inhibition) at 1uM” value stood at 17.1%.

As to `CCCCC(CC)CNC(=O)C1CCCN(S(=O)(=O)c2cnc[nH]2)C1` (stereo not shown), the “hERG current change (%, negative = inhibition) at 1uM” value came out at 5.98%.

`CC(=O)C(C(C)=O)C1(O)C(=O)c2ccccc2C1=O`: the “hERG current change (%, negative = inhibition) at 1uM” value is listed as 10.9%.

With `Nc1c(Cl)cc(C(=O)c2c3ccccc3[n+]([O-])n2CCC[NH3+])cc1Cl.[Cl-]`, the “hERG current change (%, negative = inhibition) at 1uM” value is -0.16%.

For the compound `Cc1cc(-c2ccccc2)cc(-c2ccccc2)[n+]1CCc1ccccc1.[O-][Cl+3]([O-])([O-])[O-]`, the “hERG current change (%, negative = inhibition) at 1uM” value is reported as -78.4%.

`CCN(CC(=O)NCc1cccs1)C(=O)c1ccc(S(=O)(=O)Nc2ccccc2Cl)cc1`: the “hERG current change (%, negative = inhibition) at 1uM” value came to 7.54%.

`CC(C)CN(c1ccccc1)S(=O)(=O)c1nnc(NC(=O)C(C)C)s1`: the “hERG current change (%, negative = inhibition) at 1uM” value worked out at 12.4%.

On to `CCOC(CNC(=O)c1cc2c(=O)n(CC)c3ccccc3c2s1)OCC`, for which the “hERG current change (%, negative = inhibition) at 1uM” value is listed as 11.6%.

For `OCCNc1nc2ccccc2nc1NCCO`, the “hERG current change (%, negative = inhibition) at 1uM” value turned out to be 19.9%.

Turning to `Cc1ccc(CNC(=O)C(=O)NCCCn2ccnc2)cc1`, the “hERG current change (%, negative = inhibition) at 1uM” value was determined as 13.8%.

As to `O=C(CSc1nnc(-c2cccnc2)n1Cc1ccco1)NCc1ccc2c(c1)OCO2`, the “hERG current change (%, negative = inhibition) at 1uM” value is reported as -20.4%.

Take `COc1ccc(CNC(=S)Nc2cccc(OC)c2)cc1`: the “hERG current change (%, negative = inhibition) at 1uM” value worked out at 11%.

Consider `O=C(CSc1nc2ncccc2[nH]1)NCCc1ccccc1`, for which the “hERG current change (%, negative = inhibition) at 1uM” value is reported as 15.4%.

For the compound `Cc1ccccc1C(=O)NCCOc1ccccc1Cl`, the “hERG current change (%, negative = inhibition) at 1uM” value came to 12.9%.

On to `CCNC(=O)CN(c1ccc(Cl)cc1)S(=O)(=O)c1ccccc1`, for which the “hERG current change (%, negative = inhibition) at 1uM” value is recorded as 4%.

Consider `Cn1ccc(NC(=O)Nc2ccc(Cl)cc2Cl)n1`, for which the “hERG current change (%, negative = inhibition) at 1uM” value worked out at 8.81%.

For the compound `CC(=O)c1ccc(N2CCC(c3cc(-c4ccc(Cl)cc4)n[nH]3)CC2)c([N+](=O)[O-])c1`, the “hERG current change (%, negative = inhibition) at 1uM” value is recorded as -8.2%.

`Cc1nn(-c2cc(N3CCOCC3)ccc2N)c(=O)c2ccccc12`: the “hERG current change (%, negative = inhibition) at 1uM” value amounted to 4%.

`CCc1nc(NC2CCCCC2)c(C#N)c2c1COC(C)(C)C2`: the “hERG current change (%, negative = inhibition) at 1uM” value came out at 3.54%.

In the case of `O=C1c2cccnc2Oc2ccc(Cl)cc2N1Cc1ccc(F)cc1`, the “hERG current change (%, negative = inhibition) at 1uM” value is given as 10.5%.

Consider `CC(=O)Nc1ccc(S(=O)(=O)NC(=O)C23CC4CC(CC(C4)C2)C3)cc1`, for which the “hERG current change (%, negative = inhibition) at 1uM” value is recorded as 9.6%.

For `CCCCC(=O)Nc1sc2c(c1C(N)=O)CCC2`, the “hERG current change (%, negative = inhibition) at 1uM” value is listed as 11.4%.
